Test results published in the supplement of paper PMC11417369.
The other results are listed elsewhere or left out.

These sequences were tested on PfHDP1 homeodomain (GST-tagged) (assay: gcPBM binding intensity (ln(normalized median fluorescence intensity)); higher = stronger DNA binding).
Outline: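 Binding intensity values are the highest Masliner-normalised natural-log median intensity among replicate spots of either probe orientation. The binding step lasted 1 h in 1× PBS with 1% milk, 0.2 mg/ml BSA, 0.5% salmon testes DNA and 0.03% Triton X-100, using GST-tagged P. falciparum DNA-binding domains expressed in E. coli on an Agilent 4 × 180k array of primer-extended double-stranded 36-bp intergenic genomic probes plus negative controls. Alexa488 anti-GST antibody and a 488 nm scan detected bound protein.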
With “TATAAATAAAGACACACACACATATAAATAAATATA [CACACA_site7155]” the “gcPBM binding intensity (ln)” value was 6.84.
For “ATTTATTTATTAAGATGTACTTATTAAAAATAATAA [XGTACX_site7392]”, the “gcPBM binding intensity (ln)” value was 6.01.
“AAAAAAAAAAAACATACACACAATAAAATAGGGGTA [CACACA_site2399]” was tested, and the “gcPBM binding intensity (ln)” value was 6.45.
“TATTTATATTTTAACACACACATATTTATATTTATA [CACACA_site7324]” was tested, and the “gcPBM binding intensity (ln)” value was 6.54.
“ATTTATTCATTTGGGTGTACTATTTAAAAAAAACAA [XGTACX_site498]” was tested, and the “gcPBM binding intensity (ln)” value was 6.89.
With “TATATATAATTTTATACATGCACATATTATATATAT [TGCATGCA_site1036]” the “gcPBM binding intensity (ln)” value was 8.4.
For “TATATTTTTTAAACCACACACAATATAGAGTATAAT [CACACA_site4510]”, the “gcPBM binding intensity (ln)” value was 6.92.
In the case of “TTTTTTTTTATATTTAGTACATATATATTATTATAT [XGTACX_site3334]”, the “gcPBM binding intensity (ln)” value is reported as 6.49.
“ACAAGATGATGGAAATGTACATAAAAAGAATCATAT [XGTACX_site8682]” was tested, and the “gcPBM binding intensity (ln)” value was 7.37.
In the case of “AACACTACATAAAACTGTACAATAGTATTTTATTAT [XGTACX_site996]”, the “gcPBM binding intensity (ln)” value is reported as 6.2.
In the case of “CTTAGTGTATTTGAATGTACGCATAAATATAATTAT [XGTACX_site2830]”, the “gcPBM binding intensity (ln)” value is reported as 6.66.
With “ATTATTAAAATGATATGTACGCACATAATATACATA [XGTACX_site3236]” the “gcPBM binding intensity (ln)” value was 6.72.
For “TATATATTAATATATGCATGTACGATTATTATAATA [TGCATGCA_site446]”, the “gcPBM binding intensity (ln)” value was 6.96.
“AAAAAAAAAAAACATACACACAAATATGTACATACA [CACACA_site7807]” was tested, and the “gcPBM binding intensity (ln)” value was 6.57.
For “TAAATACAAAAATGTACACACATATAAATATTTTTA [CACACA_site7612]”, the “gcPBM binding intensity (ln)” value was 6.25.
With “AATAAAAATCCACAAGCACACAAATGTACTTATATA [CACACA_site8783]” the “gcPBM binding intensity (ln)” value was 6.24.
In the case of “ATAATATTTTGAAACGGTACACTTTTAAAATACACT [XGTACX_site4423]”, the “gcPBM binding intensity (ln)” value is reported as 6.55.
For “AAAATAAGGAAAAAAAAAAAAAAAAAAAAAAAAAAG [CACACA_negctrl_site1291]”, the “gcPBM binding intensity (ln)” value was 5.89.
For “AAAGTGTTAACCTAATCTTTAGTTTTTAAACAATAT [CACACA_negctrl_site841]”, the “gcPBM binding intensity (ln)” value was 5.97.
“TATTGAAACGTATAGACACACATATGATATATATAT [CACACA_site3226]” was tested, and the “gcPBM binding intensity (ln)” value was 8.09.
“ATTTATTTATTTATATGTACTTATATATGTATTTTC [XGTACX_site6269]” was tested, and the “gcPBM binding intensity (ln)” value was 6.56.
In the case of “TGTATTTAAAATGGTTGTACATAAATAAAAATAAAA [XGTACX_site7771]”, the “gcPBM binding intensity (ln)” value is reported as 6.74.
“TTAATTAAATATTATACACACAAAAAAATAACTTTA [CACACA_site6197]” was tested, and the “gcPBM binding intensity (ln)” value was 6.43.
In the case of “GAAAATTTTTGGTGTACACAAAAAAATCCAAAAAAA [CACACA_site5042]”, the “gcPBM binding intensity (ln)” value is reported as 7.07.
